T1: UNK ZnF1-3 (human, UniProt Q9C0B0 31-174)
T1 sequence: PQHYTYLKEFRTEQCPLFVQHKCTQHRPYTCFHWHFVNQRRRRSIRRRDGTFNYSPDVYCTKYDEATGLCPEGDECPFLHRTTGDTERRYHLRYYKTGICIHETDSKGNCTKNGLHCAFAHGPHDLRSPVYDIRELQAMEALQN

B1: chr10:33214929:33214930:-_ENSG00000150093_ENST00000302278|hu_hu|hu_hu_hu_mus_True|38_78 (ssRNA)
RNA: GGGAGUUCUACAGUCCGACGAUCAACAAGUUCAUUGAAAAACUCUCCUCUGUCAGUAAGACUGAGCACAUUUUUGUAGCUAAAUGGGCUGGUGCAGUUCUGUUCACUUGUACAAGGAUUUCUUAGCUUUGCUGGGGUUGUGCUCAACAGAGGAUUGAGCAUCA
B2: 133976488_133976608_4332_3pUTR_ENSG00000205060_ENST00000378509|human|control|control (ssRNA)
RNA: GGGAGUUCUACAGUCCGACGAUCGAUAUAAAUGUAUCAAGUACAUUACAGUUGUUUUAGUUGGACGAAAAAGAAAACAAAGAAUCAAAAAUAAAUUACUAAUAAACAUGAAAAAGAUAACAUGUUUCUAAUAUGACAAUAGAGCAACAGAGGAUUGAGCAUCA
B3: chrX:109746815:109746816:+_ENSMUSG00000025529_ENSMUST00000071814|perfect_dup|FALSE|FALSE (ssRNA)
RNA: GGGAGUUCUACAGUCCGACGAUCGGUUUUAAAGUCACAAUGCCUACACUGGUGAAUCUUCCUACCCUUAUGAAUAUCACUAUGUUUUUUAAGCUCUGAAGGACGAUGAAAACCUUUAUCACAGACUUCACAUUUGUGAGGAAACAACAGAGGAUUGAGCAUCA
B4: chr12:57037365:57037366:-_ENSG00000110955_ENST00000262030|hu_hu|motif|central (ssRNA)
RNA: GGGAGUUCUACAGUCCGACGAUCCUUGCCAACUCCAGCACCACCAAAAAGCCCAAUUUUGCCACCCUUGGCAUAGGGAGCGGGCAGAUCGACAACCUUGAUACCAGUCACCAGAAUUUCCUGCUCAACACUCAUUUCCAUGAACAACAGAGGAUUGAGCAUCA
B5: 24222573_24222693_920_3pUTR_ENSG00000173960_ENST00000309033|human|control|control (ssRNA)
RNA: GGGAGUUCUACAGUCCGACGAUCUCUGAAUGAUGACAGCAUUCUGUAAAUCUGCUUCUUCCAGUGUGAGUGUCUCAUCUAGCAACCUGAGGACAGGAAGAGCUGUUGCCAGGGAAAACGGAGGACUUCUUUGAGAUCCUUGGUCAACAGAGGAUUGAGCAUCA
B6: chr16:732453:732454:+_ENSG00000103266_ENST00000219548|hu_hu|FALSE|FALSE (ssRNA)
RNA: GGGAGUUCUACAGUCCGACGAUCCGCCAGGUAGGGCAGGGAACCUCAGUAGUCCUCCACCCAGCCAUUCUCAGAGAUGAAUGCGUCAAUAACCUCCUUCAUAGCCAAGUUGGGGAUGAGCUGUUCCUGGGUCAGGGGGCUCCGCAACAGAGGAUUGAGCAUCA
B7: chr4:115894766:115894767:+_ENSMUSG00000028698_ENSMUST00000030464|mus_hu|mus_mus_mus_hu_True|1_28 (ssRNA)
RNA: GGGAGUUCUACAGUCCGACGAUCUUCCACACGGAAAUGUACUUCGGGUUUUCCAACGGCCAGUACCAGUCCGGCCAAACUACCCGAACAGGGUCCUCCCCCUCUCUUCUCUCCUCCACAACAAAAUGCCCCCGAACCCCGAACCAACAGAGGAUUGAGCAUCA
B8: chr1:74301520:74301521:+_ENSMUSG00000006304_ENSMUST00000006467|perfect_dup|motif|central (ssRNA)
RNA: GGGAGUUCUACAGUCCGACGAUCGAAGACUACUGUGACUCUGUCUUUCUUAGAUUCCACAUACAUGGUCUCAUCAUCCCGGUAAUGGAUAACUGCUCUGUUCUCUCCUUCUUUGCCCUCUUCUUGGAAUUGGAAGUAUUUCUCCAACAGAGGAUUGAGCAUCA
B9: chr6:17796276:17796277:+_ENSMUSG00000029534_ENSMUST00000053148|mus_hu|FALSE|FALSE (ssRNA)
RNA: GGGAGUUCUACAGUCCGACGAUCUCUCCAGGCUUUCUGCAUUAUUGCAUCUGCGGGACGCAGAUGGUCCGAGUCACAAGUAAAGAAUGUCUGGUGGUCUUGGGCAGAGAGAUUCAUGUCAUAGUAAGUAAGAGGCUCUCGUCCCAACAGAGGAUUGAGCAUCA
B10: chr13:41657021:41657022:+_ENSG00000120688_ENST00000379487|hu_hu|motif|central (ssRNA)
RNA: GGGAGUUCUACAGUCCGACGAUCGGUGUAUAAGUCUCCAUUCUGUCCUAAAAGCAUGUACAAAAAGCUCUCCUGCAACGGUUGAUCAUCACCUCGUUGCCUUAAAUUUCUAGAUUUUCCAUUUUCAGUUCUUCUCUUUUUGAACAACAGAGGAUUGAGCAUCA
B11: chr7:54823571:54823572:-_ENSG00000132432_ENST00000352861|hu_mus|hu_hu_hu_mus_False|8_108 (ssRNA)
RNA: GGGAGUUCUACAGUCCGACGAUCUCCCAUUAUAGCAAAUCCUAUAGCUGUAGCCAUGGCAAUCUUCUGGAAUUCUUUUCUGUCGGGUUUGGUGCAUCUUUUAACCAGCCGAAUUGAGUCCUUUACAAACUGCCGACUGGGCUCCAACAGAGGAUUGAGCAUCA
B12: 31954213_31954333_278_3pUTR_ENSMUSG00000022774_ENSMUST00000023460|mouse|control|control (ssRNA)
RNA: GGGAGUUCUACAGUCCGACGAUCCUUUAUAUCACCACUUUUGCUGAAGAGUUCAUAAAUCUGUUCUUCAGUUGUAUAAAAGGAAAGAUUUCCAACAUACAACGUACAGCUUUUCUUCAGUAACUUUUCUUGUUCUUCAUUGUCCAACAGAGGAUUGAGCAUCA
B13: chr12:39756943:39756944:-_ENSG00000139116_ENST00000544797|hu_mus|hu_hu_hu_mus_False|18_18 (ssRNA)
RNA: GGGAGUUCUACAGUCCGACGAUCGGUUUGGCUGUUACCCCCAAGGGAAUCCUGCAAGAGUCUUGUCAGCUUAGAGUCUCUGUAAGGGACAUGGGUGGCUCUCUUGCUCUUGUCCCCCAAGGCACUUAUUACAUUCCCAAGAGCCAACAGAGGAUUGAGCAUCA
B14: chr22:42024162:42024163:+_ENSG00000196419_ENST00000405878|hu_hu|motif|central (ssRNA)
RNA: GGGAGUUCUACAGUCCGACGAUCCUCAUCUUCACUCUGAGAUUCAAACAUAGCCUUGGAGGCAUCAACCAAAAAAAUCAAACGGUCUCUUCCUGAAUAUUUAUAGUCUCCACUUGCUUCAAGGUUCUCUUCUUGUUCUUCCUCCAACAGAGGAUUGAGCAUCA
B15: chr11:134117569:134117570:+_ENSG00000151502_ENST00000281187|hu_hu|FALSE|FALSE (ssRNA)
RNA: GGGAGUUCUACAGUCCGACGAUCAGAAACAUGUAAACACUGCAGCUGCUUAAUUACAAGUUGCACUGCUUGAUUUAGUACCUAUGCACUCCCAGGUUUGGGGACCUUAAGAGAGGGGGACAGGAGCCUCCCCUCACUUUCACACAACAGAGGAUUGAGCAUCA
B16: chr12:16048344:16048345:+_ENSG00000023734_ENST00000419869|hu_hu|hu_hu_hu_mus_True|18_98 (ssRNA)
RNA: GGGAGUUCUACAGUCCGACGAUCAGAUCGUCCAUAAGUUAUAACCAAAAUCUCUCCUUCAGGAAUAUACUCCAUGCUGCUAACAGACAUAUUAAAAUUCAGAGAUUUCACUUCUGUCAUAGUAGCAUGAUCCCAGAGCCGAACCAACAGAGGAUUGAGCAUCA
B17: chr3:148802587:148802588:-_ENSG00000071794_ENST00000310053|hu_mus|hu_hu_hu_mus_False|98_98 (ssRNA)
RNA: GGGAGUUCUACAGUCCGACGAUCUCCAACAACUUGUCCUCUCAAACUUCCAAAUAAAACCAAAUCUUGCUCUUCAUCACUCGUUAGGAAGUCAUCUGGAGGAAUAAUGUCUUGGAAUUCAAAAUGUGGCAAGAAAGUUGAGUACAACAGAGGAUUGAGCAUCA
B18: chr22:46712247:46712248:+_ENSG00000075218_ENST00000454366|hu_hu|motif|central (ssRNA)
RNA: GGGAGUUCUACAGUCCGACGAUCAGUAGGCAUAACCUUUGUCUUGGAAUUUAGACAGGAAUCUCGCCGUCUGAUACUUCGGGUCUUAUUCAAUUGAGAAGAUUCUGACCAAGCGCAACUGGAGUUCAGCCACUGGCCGCCACCCAACAGAGGAUUGAGCAUCA
B19: chr7:150710151:150710152:-_ENSMUSG00000059119_ENSMUST00000072727|mus_mus|motif|central (ssRNA)
RNA: GGGAGUUCUACAGUCCGACGAUCGACAGCCCGUGGCACGAUGCGCUCACGAAAAAAGUGCCCAAUUUCAAAGUCAGAGGCGGAGGUGAACUCGGAAUCUUCAUCCAGAGAUUCUCCAUCUCCAGAGGCUUUCAGGGGGCUGAACAACAGAGGAUUGAGCAUCA
B20: chr16:13130331:13130332:+_ENSMUSG00000022545_ENSMUST00000023206|mus_hu|FALSE|FALSE (ssRNA)
RNA: GGGAGUUCUACAGUCCGACGAUCCUUCCUAAAUUUCAUCCAGACUUCUUCAGCUUUGCUAUCCUUCUCAAAGGUUUUCCUGUAGAGCCUCAAUAAGAAGGCCUCCGCUCCAAGAGUGAUAUAGUCUCUCAGCUGGGAACAUGUCAACAGAGGAUUGAGCAUCA
B21: chr7:44244176:44244177:+_ENSG00000106636_ENST00000223369|hu_mus|hu_hu_hu_mus_False|58_108 (ssRNA)
RNA: GGGAGUUCUACAGUCCGACGAUCACUAUCAUUCCGGACGUAGACAUGGCAAAGAUACUCUUGUUCUUUGACAGAAGCUCUAGUGCCUUUCCCCGAGCGUUCCACAAUCAGUUGACUUGUAAAGGUCAUGAAUUCCUGCACACUCAACAGAGGAUUGAGCAUCA
B22: chr2:216981417:216981418:+_ENSG00000079246_ENST00000392132|hu_mus|motif|central (ssRNA)
RNA: GGGAGUUCUACAGUCCGACGAUCCUGAUACUGGUCCUUGCCAGCAAGGGCAUUAUCAGUGCCAUCUGUGCCAUAGAGGACGGACGCAAUCUCAUCUUUGCUCUCCGAAAAUACCUGUCGUUGGACAAACAUAGUCAUCACUUUCAACAGAGGAUUGAGCAUCA

This is one part of the list.

Results on 22 molecules are retold here after paper PMC12136788.

For this test, the target named is T1, UNK ZnF1-3. Nature of the test: nsRBNS (natural sequence RNA bind-n-seq); RBNS binding buffer (assumed for nsRBNS): 25 mM Tris pH 7.5, 150 mM KCl, 3 mM MgCl2, 0.01% Triton X-100, 500 ug/ml BSA, 20 U/ml SUPERase-In, 4 C; UNK is unkempt and MSI1 is Musashi-1; names of the RNAs are library labels; protein concentration not given here; high values mean tight binding.
The molecule B1 had a binding signal of 1.05 enrichment R.

With B2, the binding signal is 3.16 enrichment R.

B3 yielded a binding signal of 0.678 enrichment R.

Turning to B4, the binding signal worked out at 1.6 enrichment R.

For B5, the binding signal was found to be 0.901 enrichment R.

B6 yielded a binding signal of 1.25 enrichment R.

B7 had a binding signal of 0.973 enrichment R.

For B8, the binding signal came to 0.602 enrichment R.

Take B9: the binding signal was 1.18 enrichment R.

Regarding B10, the binding signal came out at 0.716 enrichment R.

In turn, B11 displayed a binding signal of 0.801 enrichment R.

The molecule B12 had a binding signal of 0.266 enrichment R.

Turning to B13, the binding signal was 0.765 enrichment R.

The molecule B14 showed a binding signal of 1.29 enrichment R.

B15 gave a binding signal of 0.528 enrichment R.

In turn, B16 returned a binding signal of 0.914 enrichment R.

Molecule B17 had a binding signal of 1.03 enrichment R.

Regarding B18, the binding signal is 1.31 enrichment R.

As for B19, the binding signal is 1.25 enrichment R.

Molecule B20 gave a binding signal of 0.867 enrichment R.

In the case of B21, the binding signal stood at 0.565 enrichment R.

For the molecule B22, the binding signal came to 0.629 enrichment R.
